Results from article PMC4336329 (PLoS ONE, 2015).
The campaign covered roughly 310,000 compounds. About 14,000 (4.5%) showed an effect of 50% or more. Effects have a minus sign here. The list shows a part of the results.

Molecular target: human ether-à-go-go-related gene (hERG) potassium channel (human, UniProt Q12809)
Assay: primary screen, population patch clamp on CHO cells stably expressing hERG
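Also: peak tail current of the secondary pulse compared with the same well before compound.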

Chain of human ether-à-go-go-related gene (hERG) potassium channel (Q12809 whole entry, looked up): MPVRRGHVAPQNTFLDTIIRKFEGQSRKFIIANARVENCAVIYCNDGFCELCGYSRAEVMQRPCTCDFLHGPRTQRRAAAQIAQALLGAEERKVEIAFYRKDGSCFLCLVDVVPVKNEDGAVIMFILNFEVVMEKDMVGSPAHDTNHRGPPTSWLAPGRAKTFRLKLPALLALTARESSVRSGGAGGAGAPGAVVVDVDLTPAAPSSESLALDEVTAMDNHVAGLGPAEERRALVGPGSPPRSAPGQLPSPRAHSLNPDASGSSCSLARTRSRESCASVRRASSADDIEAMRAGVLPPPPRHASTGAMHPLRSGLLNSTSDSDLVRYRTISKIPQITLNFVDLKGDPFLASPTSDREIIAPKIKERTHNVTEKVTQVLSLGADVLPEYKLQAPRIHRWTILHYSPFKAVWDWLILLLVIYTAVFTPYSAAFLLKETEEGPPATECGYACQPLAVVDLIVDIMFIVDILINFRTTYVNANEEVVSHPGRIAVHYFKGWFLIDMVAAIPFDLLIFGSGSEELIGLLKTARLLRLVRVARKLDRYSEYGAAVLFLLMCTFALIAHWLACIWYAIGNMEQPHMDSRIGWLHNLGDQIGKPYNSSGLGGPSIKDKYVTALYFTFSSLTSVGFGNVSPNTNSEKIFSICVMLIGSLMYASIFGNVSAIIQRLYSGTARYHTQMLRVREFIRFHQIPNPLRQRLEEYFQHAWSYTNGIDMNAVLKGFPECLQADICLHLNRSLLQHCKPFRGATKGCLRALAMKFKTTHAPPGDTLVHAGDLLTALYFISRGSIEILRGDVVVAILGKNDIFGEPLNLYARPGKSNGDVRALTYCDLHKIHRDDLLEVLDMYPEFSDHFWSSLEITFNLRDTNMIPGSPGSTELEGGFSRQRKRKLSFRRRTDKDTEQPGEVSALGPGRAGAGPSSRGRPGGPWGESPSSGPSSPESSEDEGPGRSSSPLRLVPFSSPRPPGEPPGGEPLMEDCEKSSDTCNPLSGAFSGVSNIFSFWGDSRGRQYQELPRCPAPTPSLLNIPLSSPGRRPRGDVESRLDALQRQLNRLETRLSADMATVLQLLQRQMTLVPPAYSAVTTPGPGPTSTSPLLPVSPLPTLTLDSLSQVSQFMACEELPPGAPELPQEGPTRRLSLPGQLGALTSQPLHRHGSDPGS

SMILES | hERG current change (%, negative = inhibition) at 10uM
O=[N+]([O-])c1cc(-c2n(-c3ccccn3)c3ccccc3[n+]2-c2ccccn2)ccc1Cl.[I-] | -15.6%
COc1ccc(-c2[nH]ncc2CN(C)CCN2CCOCC2)cc1F | 16.6%
N/C(Cc1ccc([N+](=O)[O-])cc1)=N\OC(=O)C(c1ccccc1)c1ccccc1 | -66.9%
COc1ccc(CCNC(=O)COc2cc(C)cc3oc(=O)cc(C)c23)cc1OC | 1.42%
CSc1nc2ncc3c(n2n1)CC(C)(C)CC3=O | -16.7%
Cc1ccc(S(=O)(=O)CCC(=O)OCC(=O)NC(C)c2ccccc2)cc1 (centres unmarked) | 6.54%
CN(C)CCCNC(=O)c1ccc(Cl)c(S(=O)(=O)N(C)c2ccccc2)c1.Cl | -35%
CC12CN(Cc3ccccc3)CC(C)(CN(Cc3ccccc3)C1)C2=NO | -25.5%
CCN1CCN(c2nc(-c3ccncc3)nc3ccccc23)CC1 | -77.8%
CC1CCC2C(C)C(=O)OC3OC4(C)CCC1C32OO4 (centres unmarked) | 9.69%
O=[N+]([O-])c1ccc(-c2ncc(-c3ccc(Br)cc3)o2)cc1 | 14.1%
CCOc1ncccc1C(=O)OCc1ccc(C(=O)OC)o1 | 5.35%
Cc1cc(C(=O)COC(=O)Cc2ccc(Br)cc2)c(C)n1C | 8.24%
CCC(C)NC(=O)C(CCSC)NC(=O)c1ccccc1 (centres unmarked) | 10.4%
CCc1nccn1C(=O)c1cnn2c(C(F)F)cc(-c3ccccc3)nc12 | 10.8%
CCCC1C(c2ccc(OC)cc2)C(C#N)(C#N)C2(C#N)CC1(N)NC2=O (centres unmarked) | -6.78%
CC(C)NS(=O)(=O)c1ccc(OCC(=O)NCc2ccco2)cc1 | 0.267%
CSc1ncccc1C(=O)N1CCN(S(=O)(=O)c2cc(C)ccc2C)CC1 | -11.3%
CC(C)CN1CN(Cc2ccco2)CNC1=S | -9.58%
Cc1ccn(C(C)CC(=O)Nc2ccc(-c3ccno3)cc2)n1 (centres unmarked) | 5.38%
O=C(CSc1nnc(SCc2ccc(Cl)cc2)s1)N1CCOCC1 | 5.64%
COc1cccc(CNC(=O)CN(C)S(=O)(=O)c2cccc3cccnc23)c1 | 3.54%

SMILES | hERG current change (%, negative = inhibition) at 10uM
CCCN(CCC)CCNC(=S)Nc1ccc2nc3n(c(=O)c2c1)CCCCC3 | -17%
CCCC(CCC)C(=O)NC1CCN(Cc2ccccc2)CC1.Cl | -7.76%
CN(C)CCCN1C(=O)C2CCc3[nH]c4ccccc4c3C2C1=O (centres unmarked) | 15.3%
CCCC(CCC(=O)Nc1cccc([N+](=O)[O-])c1)C(=O)O (centres unmarked) | -0.0899%
O=C1c2cccc(OCc3ccc(F)cc3)c2CCN1Cc1ccc(F)cc1 | 0.623%
Cc1ccccc1OCC(=O)Nc1ccc2c(c1)OCO2 | -7.9%
N/C(=N\OC(=O)Cc1ccccc1[N+](=O)[O-])c1ccncc1 | 3.96%
COc1ccc(C(CNC(=O)c2cc(C)on2)N(C)C)cc1 (centres unmarked) | 22.1%
O=C(NC1CC1)c1ccc(CSCc2cccc(F)c2)o1 | -18.3%
COc1ccc(C(CNC(=O)c2ccc(N3CCCC3=O)cc2)N(C)C)cc1 (centres unmarked) | -2.32%
CCC(=O)Nc1ccc(NC(=O)CSc2nnc(C(C)C)n2C)cc1 | 11.8%
O=C(NCCN1C(=O)CSC1=O)c1ccccc1 | 16.5%
CC(C)(C)NC(=O)c1oc2ccccc2c1COc1ccccc1 | 13.6%
FC(F)(F)c1ccc(/C=N/n2c(C3CCCCC3)n[nH]c2=S)cc1 | 11.8%
CCOC(=O)[C@@H]1[C@H]2COc3ccc(Br)cc3[C@@H]2N2C(=O)N(c3ccc(Br)cc3)C(=O)[C@]12C | 13%
COc1ccc(NC(=O)C(CC(C)C)NC(=O)C2CCC(C)CC2)c(OC)c1 (centres unmarked) | -5.41%
Nc1cc(Cl)nc(N/N=C/c2ccc([N+](=O)[O-])cc2)n1 | 0.056%
CCn1c(C(c2ccccc2)c2ccccc2)n[nH]c1=S | 9.15%
CC(=O)c1ccc(NC(=O)C2CCN(S(=O)(=O)c3cccc4cccnc34)CC2)cc1 | -0.886%
O=C1CC(N2CCCCC2)C(=O)N1c1ccccc1 (centres unmarked) | -3.42%
CC(C)(C)c1cc[n+](-c2[nH]c(=O)sc2/C=N/N=C(\[O-])c2ccccc2)cc1 | 10.1%
O=C(CSc1nnc2c(Cl)cc(C(F)(F)F)cn12)NCc1ccc(F)cc1 | -4.27%

SMILES | hERG current change (%, negative = inhibition) at 10uM
CCOC(=O)N1C(=O)C2(CCCCC2)N(c2ccccc2Cl)C1=S | -7.73%
O=CN1CCN(C(=O)c2cccc3c2-c2ccccc2C3=O)CC1 | -12.9%
CCOc1cc(/C=N\NC(=O)c2ccc(C)nc2)ccc1OC(=O)c1ccc(F)cc1 | 15.4%
CCN(CC)S(=O)(=O)c1ccc(-c2nnc(SCC(=O)Nc3ccc4c(c3)OCO4)o2)cc1 | 7.11%
CN(C)Cc1c(O)ccc2c(=O)c(-c3ccccc3Cl)coc12 | 9.82%
Cc1cccn2c(=O)c(/C=C(\C#N)C(=O)NCc3ccco3)c(N3CCCCCC3)nc12 | -36.5%
CCOc1ccc(/C(O)=C2\C(=O)C(=O)N(CCOCCO)C2c2ccccc2OC)cc1 (centres unmarked) | 2.11%
CCc1ccc2oc(C(=O)NCc3ccc(S(N)(=O)=O)cc3)c(C)c2c1 | 15%
C/C(=N/NC(=O)c1ccco1)c1cccc(NC(=O)c2ccc(C)s2)c1 | 1.1%
Cc1csc(NC(=O)CSc2ncnc3c2cnn3-c2ccccc2Cl)n1 | -17.4%
Cc1oc2ccc(OCc3ccc(Br)cc3)cc2c1C(=O)O | 44.2%
CC(CCc1ccccc1)NC(=O)COC(=O)c1cccc2ccccc12 (centres unmarked) | 1.44%
O=C(O)c1cc(S(=O)(=O)NC23CC4CC(CC(C4)C2)C3)ccc1Cl | 14%
Cc1ccc(S(=O)(=O)N2CCOCC2)cc1C(=O)NCc1ccco1 | -4.95%
COC(=O)[C@@]12CCCN1[C@H](c1ccc(-c3cccc(Cl)c3)c(OC)c1)[C@H]1C(=O)N(C)C(=O)[C@H]12.O=C(O)C(F)(F)F | -39.8%
COc1ccc(OCCCC(=O)Nc2ccc(S(=O)(=O)N3CCOCC3)cc2)cc1 | 0.442%
COc1ccc(CC(=O)N(C)C2CCCCC2)cc1S(=O)(=O)N1CCOCC1 | 9.3%
O=S(=O)(c1ccc(Cl)cc1)N1CCN(c2ccccn2)CC1 | -4.62%
CCOC(=O)c1c(/N=C/c2cccc([N+](=O)[O-])c2O)sc2c1CCC2 | 4.23%
O=C(c1cc2c(s1)CCCC2)N1CCN(C(=O)C2CCCO2)CC1 (centres unmarked) | -1.97%
CC/C(=N\Nc1ccccc1)c1c(O)n(C)c(=O)n(C)c1=O | 3.43%
Cc1ccnn1CCC(=O)N1CCCC(CCC(=O)NCc2ccccc2F)C1 (centres unmarked) | -6.16%

SMILES | hERG current change (%, negative = inhibition) at 10uM
O=C(c1cc(F)ccc1F)C1CCCN(C(=O)CCCN2CCCCC2=O)C1 (centres unmarked) | -1.03%
CC(C)COc1ccc(C/C(N)=N/n2cnnc2)cc1 | 30.4%
O=C(Nc1cnn(C23CC4CC(CC(C4)C2)C3)c1)c1cnn2cccnc12 | -9.81%
COC(=O)c1ccc(COC(=O)C23CC4CC(CC(O)(C4)C2)C3)o1 | -0.467%
Cc1ccc(-c2nnc(N3CCN(C(=O)CN4CCOCC4)CC3)c3ccccc23)cc1 | -31.5%
Cc1ccccc1C(=O)OCn1nnc2ccccc2c1=O | -2.01%
Cn1c(O)c(C(=Nc2ccccc2)SCc2ccccc2Cl)c(=O)n(C)c1=O | 21.5%
COc1ccc(-c2nc(-c3ccc(Br)o3)no2)cc1 | 13%
Nc1nc(SCC(=O)Nc2ccccc2Sc2ccccc2)n[nH]1 | -6.57%
Cc1ccn2c(NC(=O)C(C)(C)Oc3ccc(Cl)cc3)c(-c3cccs3)nc2c1 | -10.3%
CC(=O)c1ccc(NC(=S)NCC(c2ccco2)N2CCCC2)cc1 (centres unmarked) | 5.22%
N#Cc1ccccc1NC(=O)Nc1ccc(Cl)cc1 | 1.16%
O=C(CN1CCC(NC(=O)C2CCCCC2)CC1)NCc1ccco1 | -3.83%
Cc1ccccc1N=Cc1c(O)n(-c2nccs2)c(=O)c2ccccc12 | -0.537%
Cc1cc(=O)oc2c3c(cc(OCC(=O)NCC(=O)O)c12)OC(C)(C)CC3 | 19%
COCCN1C(=O)N[C@@H](CCc2ccccc2)[C@@H](C(=O)OC)[C@H]1C | 2.15%
CN(C)CCCN(C(=O)c1ccc(S(=O)(=O)N2CCc3ccccc32)cc1)c1nc2c(Cl)cccc2s1.Cl | -27.6%
S=c1[nH]nc(-c2ccncc2)n1/N=C/c1cn(-c2ccccc2)nc1-c1ccccc1 | 8.27%
Nc1nonc1-n1nnc(C(=O)N/N=C/c2ccc3c(c2)OCO3)c1CSc1ccccc1 | 18.9%
COc1ccc(Cl)cc1NC(=O)CN(C)C(=O)c1ccc2c(c1)CC(c1ccccc1)OC2=O (centres unmarked) | -41.8%
